Test results from paper PMC8360153.
Results are given in words; binding and its absence hold for the method and conditions named. Some binding calls cover weakened binding; strength is not graded here. For some assays here: Where a sequence is shown, tags or fusion partners need not be part of it.

T1: oligohistidine-tagged ActS (E. coli) (UniProt Q46798)
T1 sequence: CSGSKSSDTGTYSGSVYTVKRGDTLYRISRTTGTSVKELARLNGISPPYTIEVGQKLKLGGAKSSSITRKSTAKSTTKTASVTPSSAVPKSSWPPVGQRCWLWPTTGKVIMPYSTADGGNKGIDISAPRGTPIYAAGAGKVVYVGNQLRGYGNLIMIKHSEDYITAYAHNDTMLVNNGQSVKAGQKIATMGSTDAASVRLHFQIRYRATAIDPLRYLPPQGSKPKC

T2: fluorescent (NT-647)-labeled ActS (E. coli) (UniProt Q46798)
T2 sequence (chain, NT-647 fluorescent label (site not stated)): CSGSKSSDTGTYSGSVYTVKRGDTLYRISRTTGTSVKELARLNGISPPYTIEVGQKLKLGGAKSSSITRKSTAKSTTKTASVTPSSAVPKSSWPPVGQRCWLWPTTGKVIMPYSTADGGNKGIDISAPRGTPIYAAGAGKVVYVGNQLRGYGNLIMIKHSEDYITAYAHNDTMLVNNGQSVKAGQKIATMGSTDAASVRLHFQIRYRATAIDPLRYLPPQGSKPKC


Assays:
[1] = molecular target: T1, oligohistidine-tagged ActS (E. coli); test: pull-down; oligohistidine-tagged ActS mixed with untagged amidase (2 μM each) in 10 mM HEPES/NaOH pH 7.5, 10 mM MgCl2, 150 mM NaCl, 0.05% Triton X-100; no formaldehyde cross-linker; pulled down to Ni2+-NTA beads 3 hr at 4°C; washed with 500 mM NaCl, 40 mM imidazole; Coomassie-stained SDS-PAGE; both purified
[2] = molecular target: T2, fluorescent (NT-647)-labeled ActS (E. coli); test: MST; 100 nM FL-ActS (NT-647-labeled) titrated with two-fold serial dilutions of unlabeled amidase; 50 mM Tris-HCl pH 8, 150 mM NaCl, 5% glycerol, 0.025% TX-100; both purified

| binding [1] | binding [2] | Binder |
| --- | --- | --- |
| no binding (tested: 2 μM) | no binding | AmiB (enzyme, UniProt P26365 23-445) ATLSDIQVSNGNQQARITLSFIGDPDYAFSHQSKRTVALDIKQTGVIQGLPLLFSGNNLVKAIRSGTPKDAQTLRLVVDLTENGKTEAVKRQNGSNYTVVFTINADVPPPPPPPPVVAKRVETPAVVAPRVSEPARNPFKTESNRTTGVISSNTVTRPAARATANTGDKIIIAIDAGHGGQDPGAIGPGGTREKNVTIAIARKLRTLLNDDPMFKGVLTRDGDYFISVMGRSDVARKQNANFLVSIHADAAPNRSATGASVWVLSNRRANSEMASWLEQHEKQSELLGGAGDVLANSQSDPYLSQAVLDLQFGHSQRVGYDVATSMISQLQRIGEIHKRRPEHASLGVLRSPDIPSVLVETGFISNNSEERLLASDDYQQQLAEAIYKGLRNYFLAHPMQSAPQGATAQTASTVTTPDRTLPN |
| – | no binding | AmiA (enzyme, UniProt P36548 35-289) KDELLKTSNGHSKPKAKKSGGKRVVVLDPGHGGIDTGAIGRNGSKEKHVVLAIAKNVRSILRNHGIDARLTRSGDTFIPLYDRVEIAHKHGADLFMSIHADGFTNPKAAGASVFALSNRGASSAMAKYLSERENRADEVAGKKATDKDHLLQQVLFDLVQTDTIKNSLTLGSHILKKIKPVHKLHSRNTEQAAFVVLKSPSVPSVLVETSFITNPEEERLLGTAAFRQKIATAIAEGVISYFHWFDNQKAHSKKR |
| binds | binds weakly | AmiC (enzyme, UniProt P63883 32-417) AVSQVVAVRVWPASSYTRVTVESNRQLKYKQFALSNPERVVVDIEDVNLNSVLKGMAAQIRADDPFIKSARVGQFDPQTVRMVFELKQNVKPQLFALAPVAGFKERLVMDLYPANAQDMQDPLLALLEDYNKGDLEKQVPPAQSGPQPGKAGRDRPIVIMLDPGHGGEDSGAVGKYKTREKDVVLQIARRLRSLIEKEGNMKVYMTRNEDIFIPLQVRVAKAQKQRADLFVSIHADAFTSRQPSGSSVFALSTKGATSTAAKYLAQTQNASDLIGGVSKSGDRYVDHTMFDMVQSLTIADSLKFGKAVLNKLGKINKLHKNQVEQAGFAVLKAPDIPSILVETAFISNVEEERKLKTATFQQEVAESILAGIKAYFADGATLARRG |
